# PubChem BioAssay AID686971 (National Center for Advancing Translational Sciences (NCATS), 2013)
# Hit rate of the full screen: of about 360,000 compounds, about 7,500 (2.1%) were called active. The shares of active, inactive and inconclusive entries below differ from those in the screen. Calls follow the shape of the dose curve; as a rule, active = well fitted cell-killing curve with a large enough effect; inconclusive = small, poorly fitted or top-dose-only effect, or effect the other way, or another doubt; inactive = no such curve, though single readings can be large or run the other way. No potency is given beside an inconclusive call; the fits are too rough.
# Test: qHTS for induction of synthetic lethality in tumor cells producing 2HG: qHTS for the HT-1080-IDH1KD cell line;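 as to activity, negative = toxicity: 0% = DMSO wells and -100% = cell-free medium wells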
# Settings: HT-1080 IDH1 knockdown viability, ATP luminescence, 48 h; activity, negative = toxicity: at 46.1 µM (top of the series) unless noted
# How it was run: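 After a 2 h attachment period, IDH1KD HT-1080 cells took pin-transferred compound for 48 h at 37 °C; ATP-based luminescence after 10 min room-temperature reagent incubation reported viability.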
# Potency is read from the fitted curve at half-maximal effect; tags tell the direction and shape of the fitted curve.
Compound,"activity, negative = toxicity",Potency
COc1ccc(OC)c(NC(=O)C2CCCN(S(=O)(=O)c3ccc(-n4cnnn4)cc3)C2)c1 (stereo not drawn),inactive: 6.09%,–
O=C(NNC(=O)C1CCN(S(=O)(=O)c2ccccc2C(F)(F)F)CC1)c1ccccc1O,–,"inconclusive [cytotoxic, partial curve]"
Cc1cc(N2CCN(c3ccccc3)CC2)nc(-c2ccccc2O)n1,inactive: -4.47%,–
CCc1ccc(/C=N/NC(=O)c2cc(C3CC3)nc3ccccc23)s1,–,active: 1.84 µM
CCOc1cc(CNCCc2ccc(S(N)(=O)=O)cc2)ccc1OCc1ccccc1,–,"inconclusive [cytotoxic, single point]"
CC(=O)Nc1ccc(N2CCCCC2)c(C(=O)Nc2cccc(C)c2)c1,–,"inconclusive [cytotoxic, single point]"
C/C(=N\NC(=O)CCCNc1ccc(C)cc1)c1ccccn1,inconclusive: -36.2% [cytotoxic],–
COC(=O)C1=C(C)N(CCc2ccccc2)C(=O)C1(NS(=O)(=O)c1ccc(NC(C)=O)cc1)C(F)(F)F (stereo not drawn),–,active: 6.31 µM
CCC(C)NCCOCCOc1ccccc1-c1ccccc1 (stereo not drawn),–,"inconclusive [cytotoxic, single point]"
O=C(CCl)N1CCN(S(=O)(=O)c2ccc3c(c2)OCCCO3)CC1,–,"inconclusive [cytotoxic, single point]"
COc1ccc(-c2c([C@H]3[C@H]4C=CC[C@@H](C)[C@@H]4C(=O)N3Cc3ccccc3)ccc3ccccc23)cc1,–,"inconclusive [cytotoxic, single point]"
Cn1c(CNC(=O)CCNC(=O)c2cccc(Cl)c2)cc(=O)n(C)c1=O,inactive: -6.48%,–
COCCNC(=S)N1CCc2cc(OC)c(OC)cc2C1c1cccs1 (stereo not drawn),inactive: 5.33%,–
O=C(/C=C/c1ccc(O)cc1)c1ccc(NC2=C(N3CCCCC3)C(=O)c3ccccc3C2=O)cc1,–,"inconclusive [cytotoxic, single point]"
CC1(C(=O)Nc2ccc(Cl)c(C(F)(F)F)c2)Cc2c(-c3cccc(C(N)=O)c3)ccnc2O1 (stereo not drawn),–,"inconclusive [cytotoxic, partial curve, poor fit]"
O=S(=O)(NCCN1CCOCC1)c1cc(Cl)ccc1Cl,inactive: 18.8%,–
CCCC1CCc2c(sc(NC(=O)OCC)c2C#N)C1 (stereo not drawn),–,active: 18.4 µM
O=C(Nc1ccc(OC(F)F)c(Cl)c1)C(c1ccccc1)c1ccccc1,–,active: 16.4 µM
COc1ccc(NC(=O)c2cc(C3CCCCN3S(=O)(=O)c3cn(C)cn3)on2)c(C)c1 (stereo not drawn),–,"inconclusive [rising, partial curve, poor fit]"
Cc1cccc(NC(=O)c2nc[nH]c2C(=O)Nc2cccc(C)c2)c1,–,"inconclusive [cytotoxic, full curve, poor fit]"
COc1ccccc1-c1cn[nH]c1-c1ccc(OCc2ccc(F)cc2)cc1O,–,"inconclusive [cytotoxic, single point]"
COc1ccc(Cl)cc1NC(=O)NNC(=O)C(=O)Nc1ccc(F)cc1,inconclusive: -13.2% [cytotoxic],–
O=C(C[n+]1ccc(-c2ccccc2)cc1)Nc1ccc([N+](=O)[O-])cc1,inactive: -1.05%,–
Cc1ccc(NC(=O)c2c(NC(=O)CCC(=O)O)sc3c2CCCCC3)cc1,–,"inconclusive [cytotoxic, single point]"
COc1ccc(NC(=O)Cn2nnc(C(=O)NCc3ccccc3)c2N)c(OC)c1,–,"inconclusive [cytotoxic, single point]"

Compound,"activity, negative = toxicity",Potency
COC(=O)c1nnc(-c2ccccc2)nc1OC,–,"inconclusive [rising, partial curve, poor fit]"
Cc1ccc(CNC(=O)c2ccc(S(=O)(=O)N3CCCCCC3)cc2)cc1,–,"inconclusive [cytotoxic, single point]"
O=C(CCl)Nc1ccc(N2CCCCCC2)cc1,–,active: 18.4 µM
CCOc1cc(S(=O)(=O)Nc2ccccn2)ccc1F,inactive: 16.7%,–
O=C1NN=C2CCCCCCC12 (stereo not drawn),inconclusive: -4.4% [cytotoxic],–
COc1cc(OC)cc(C(=O)N[C@H](C(=O)Nc2nc(-c3ccc(OC)c(OC)c3)cs2)C(C)C)c1,inactive: -0.531%,–
Cc1ccc(C)c(NC(=O)c2ccccc2NS(=O)(=O)c2cc([N+](=O)[O-])ccc2C)c1,–,active: 13 µM
Cc1ccc(S(=O)(=O)N(CCC(=O)O)c2ccccc2)cc1,inactive: 17.1%,–
CCN1CCc2c(C#N)c(N3CCCCC3)nc(NCc3ccccc3)c2C1,–,"inconclusive [cytotoxic, single point]"
c1ccc(CC2CCN(C3=Nc4cccc5cccc3c45)CC2)cc1,–,active: 20.6 µM
COc1ccc(-c2cc(C(=O)NN)[nH]n2)cc1OC,–,"inconclusive [cytotoxic, single point]"
CCC1CCCCN1CCCNC(=O)c1ccc2c(c1)c(C)c(C)n2CC (stereo not drawn),–,"inconclusive [cytotoxic, single point]"
COc1cccc2sc(N(CCCN(C)C)C(=O)c3ccc(S(=O)(=O)N4CCc5ccccc5C4)cc3)nc12,–,"inconclusive [cytotoxic, single point]"
COc1ccc(C(=O)Nc2nc(C)c3cc4c(cc3n2)OCO4)cc1,–,"inconclusive [cytotoxic, single point]"
COc1ccc(-c2nn(C)c3sc(C(=O)NCCN(C)C)cc23)cc1OC,inactive: -6.63%,–
CCOc1cc(C)nc(NCc2ccccc2)n1,–,"inconclusive [cytotoxic, single point]"
CCC/C=C/c1ccc(CN2C(CC(C)C)C(=O)N(Cc3cn(CCC4OCCO4)nn3)CCS2(=O)=O)cc1 (stereo not drawn),–,"inconclusive [cytotoxic, single point]"
CN(c1ccc(C(=O)N2CCN(Cc3ccccc3)CC2)cc1)S(=O)(=O)c1ccc(Cl)cc1,–,"inconclusive [cytotoxic, partial curve]"
O=C1CCC2(CC1)NC(=O)N(c1ccccc1)N2,–,active: 8.2 µM
CC(=O)Nc1ccc(Nc2ncnc3c2cnn3-c2cccc(C)c2)cc1,inactive: -5.52%,–
CSc1nc2ccccc2cc1/C=C(\C#N)c1cccc(C)c1,–,active: 5.17 µM
Cc1ccc(/C=C/c2ccc(=O)n(Cc3ccc(F)cc3)n2)cc1,–,"inconclusive [cytotoxic, single point]"
CC1C/C(=C/c2cccn2C)C(=O)/C(=C/c2cccn2C)C1 (stereo not drawn),–,"inconclusive [cytotoxic, single point]"
COC(=O)c1coc(-c2ccc(OC)cc2)c1C(=O)OC,–,"inconclusive [rising, partial curve, poor fit]"
Cc1nn2c(NCCN(C)C)c3c(nc2c1-c1ccccc1)CCCC3,–,active: 14.6 µM

Compound,"activity, negative = toxicity",Potency
NC(=O)c1ccc(C(F)(F)F)n(Cc2cccc(Cl)c2)c1=O,–,"inconclusive [cytotoxic, single point]"
O=C1C=CC(=O)N1Cc1ccccc1,–,active: 18.4 µM
CCc1ccc(S(=O)(=O)/N=C2\C=C(Nc3cccc(C(=O)O)c3)C(=O)c3ccccc32)cc1,–,active: 7.31 µM
O=C(Nc1ccc(Cl)cc1C(F)(F)F)c1ccc(Cl)cc1,–,"inconclusive [cytotoxic, single point]"
COc1ccc(NC(=O)C2Cc3c(-c4cccc(NC(C)=O)c4)ccnc3O2)cn1 (stereo not drawn),–,"inconclusive [cytotoxic, full curve]"
COc1ccc(OC)c(COC(=O)c2cc([N+](=O)[O-])ccc2N2CCOCC2)c1,–,"inconclusive [cytotoxic, single point]"
CCCCCSc1nc2c(cnn2-c2ccccc2)c(=O)[nH]1,–,"inconclusive [cytotoxic, single point]"
COc1cc(OC)c2c(-c3cccc(-c4ccc(OC)c(F)c4)c3)cc(=O)oc2c1,–,active: 0.651 µM
COc1ccc(-n2c(C)cc(C(=O)Cn3nc(C(=O)O)c4ccccc4c3=O)c2C)cc1,inactive: -16.4%,–
CCOC(=O)c1cnc(SC2CC(=O)N(c3ccc(C)cc3)C2=O)nc1N (stereo not drawn),inactive: -0.501%,–
COCCCNc1ccn2nc(-c3ccc(OCc4ccccc4)cc3)cc2n1,–,"inconclusive [cytotoxic, partial curve]"
O=C(CCCCC(=O)OCC1CCCO1)OCC1CCCO1 (stereo not drawn),inactive: 20.6%,–
CCOC(=O)N1CCN(C(=O)CSCC(=O)Nc2nc(-c3ccccc3)cs2)CC1,inactive: -15.3%,–
O=C(NNC(=O)c1ccccc1O)c1cccc(Br)c1,inactive: -26.6%,–
O=S1(=O)NC2c3ccccc3CC2O1 (stereo not drawn),inactive: -0.0943%,–
COc1ccc(C2N(C(=O)c3ccccc3)CCN2C(=O)c2ccc(C)cc2)cc1 (stereo not drawn),inactive: -23.5%,–
CSCC[C@H](NC(=O)OC(C)(C)C)c1nnc(SCc2ccccc2)o1,inactive: -6.1%,–
N#C/C(=C\C=C\c1ccccc1)C(=O)NCc1cccnc1,–,"inconclusive [cytotoxic, single point]"
CN(CC(=O)Nc1ccc(F)c(F)c1F)C(=O)C1COc2ccccc2O1 (stereo not drawn),inactive: 5.26%,–
N#CC1=C(N)OC2=C(C(=O)CC(c3ccco3)C2)C1c1ccc(OCc2c(F)cccc2Cl)cc1 (stereo not drawn),–,"inconclusive [cytotoxic, single point]"
C[C@H](c1ccccc1)N1C[C@H](COCc2ccccc2)Oc2cc(N3CC[C@H](N(C)C)C3)ccc2S1(=O)=O,–,active: 14.6 µM
CC(=O)Nc1ccc(CN(C)c2c(C)nc3ccc(C(=O)Nc4ccc(Cl)c(Cl)c4)cn23)cc1,–,"inconclusive [cytotoxic, single point]"
CC(=O)Oc1ccc(C23c4ccccc4C2(OC(C)=O)c2cc(OC(C)=O)ccc23)cc1 (stereo not drawn),–,active: 7.31 µM
